{"source": "patent US7629351B2", "about": "“N-((1R,2S,5R)-5-(tert-butylamino)-2-((S)-2-oxo-3-(6-(trifluoromethyl)quinazolin-4-ylamino) pyrrolidin-1-yl)cyclohexyl)acetamide and other modulators of chemokine receptor activity, crystalline forms and process” (Bristol-Myers Squibb Company, priority 2006, dated 2009)", "key": {"[1]": {"tested_on": "mononuclear cell recruitment to the skin", "test": "Intradermal MCP-1 challenge model in cynomolgus monkey", "type": "in vivo", "conditions": "in words", "description": "Intradermal injection of MCP-1 results in the infiltration of mononuclear cells to the injection site. This model was initially developed to assess the inhibitory effect of CCR2 antagonists on the infiltration of mononuclear cells to the skin tissue injected with human MCP-1. The cellular infiltrate can be measured semi-quantitatively by histological scoring.\nImmediately after dosing on Day 3, all animals received 2 intradermal injections of 10 μg (50 μL/injection ) of human MCP-1 (R & D Systems) and 2 intradermal injections of its DPBS control (50 μl/injection) at separate sites on the dorsal thorax. Dermal biopsies of all sites were obtained at approximately 18 hours following MCP-1 (or DPBS) challenge. Biopsies were processed for semi-quantitative histological evaluation. Representative sections of skin samples were examined by light microscopy; microscopic lesions and cellular infiltration were noted and their incidences were tabulated.\nIn addition to biopsy analysis, blood was collected and evaluated for complete blood counts and cell differentials. Also evaluated were plasma samples for compound (and metabolite) concentrations, and serum samples for systemic MCP-1 levels."}, "hCCR2 KI mice (EAE)": {"tested_on": "hCCR2 KI mice (EAE)", "test": "EAE model of multiple sclerosis in hCCR2 KI mice", "type": "in vivo", "conditions": "Day 22"}}}
{"compound": "CC(=O)N[C@@H]1C[C@H](NC(C)(C)C)CC[C@@H]1N1CC[C@H](Nc2ncnc3ccc(C(F)(F)F)cc23)C1=O", "note": "[Example 1, N-((1R,2S,5R)-5-(tert-butylamino)-2-((S)-2-oxo-3-(6-(trifluoromethyl)quinazolin-4-ylamino)pyrrolidin-1-yl)cyclohexyl)acetamide]", "values": [{"measurement": "mononuclear cell recruitment to skin (FIG. 20)", "setting": "[1]", "value": "inhibited mononuclear cell recruitment to skin"}, {"measurement": "total inflammatory cellular infiltrate, histological evaluation of the spinal cord versus vehicle", "setting": "hCCR2 KI mice (EAE)", "value": "did not demonstrate a significant difference"}]}
